# Reference: PubChem BioAssay AID624417 (National Center for Advancing Translational Sciences (NCATS), 2012)
# Screen size: about 410,000 compounds; about 6,400 (1.6%) were called active. Inconclusive means that the source gave no clear call. Such entries were picked first, then a sample of the others. Calls come from the whole dose curve; as a rule, active = well fitted inhibition curve with a large enough effect; inconclusive = small, poorly fitted or top-dose-only effect; inactive = no such curve, though single readings can be large or run the other way. Potencies of inconclusive entries are left out as doubtful fits.
# Biological target: Glucagon-like peptide 1 receptor (Homo sapiens) (UniProt P43220)
# Chain of UniProt P43220 (P43220 whole entry, looked up): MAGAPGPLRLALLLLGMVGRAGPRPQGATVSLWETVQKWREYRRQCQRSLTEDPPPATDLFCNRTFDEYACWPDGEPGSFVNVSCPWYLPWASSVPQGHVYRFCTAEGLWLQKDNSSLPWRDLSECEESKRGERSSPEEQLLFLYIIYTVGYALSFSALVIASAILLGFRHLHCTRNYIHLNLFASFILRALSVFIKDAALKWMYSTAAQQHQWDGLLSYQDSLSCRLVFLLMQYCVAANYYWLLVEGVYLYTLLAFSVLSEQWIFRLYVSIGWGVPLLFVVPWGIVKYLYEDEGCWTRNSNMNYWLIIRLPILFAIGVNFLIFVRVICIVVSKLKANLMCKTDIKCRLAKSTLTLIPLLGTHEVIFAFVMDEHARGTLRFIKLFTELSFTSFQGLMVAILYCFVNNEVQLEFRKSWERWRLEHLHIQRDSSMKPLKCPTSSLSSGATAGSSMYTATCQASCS
# Assay: qHTS of GLP-1 Receptor Inverse Agonists (Inhibition Mode); note: nearly all actives have a fitted effect of over 55% in size
# Conditions: HEK293 GLP-1R CRE-luciferase, luminescence, 24 h, GLP-1R form is constitutively active; series mostly up to 38.3 µM
# In short: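 Stable HEK293 clone (constitutively active GLP-1R + cAMP-response luciferase); 200 cells/uL plated, 12 h pre-culture, compound 24 hr, 37 deg C/5% CO2; detection reagent 12 min RT; luminescence.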
# Potency is the fitted concentration of half-maximal effect; tags give direction and shape of the fitted curve.
row,SMILES,Potency
1,COC(=O)c1ccccc1NC(=O)CSc1cc(-c2ccccc2)nc(C)n1,inactive
2,Clc1ccc(-c2ccc(CNCCSc3nnnn3-c3ccccc3)o2)cc1,"inconclusive [inhibitor, single point]"
3,CCOc1ccc(NC(=O)[C@@H](NC(=O)c2ccccc2)[C@@H](C)CC)cc1,"inconclusive [inhibitor, single point]"
4,CC(=O)c1cccc(NC(=O)N2CCC(C(=O)c3ccc(F)cc3)CC2)c1,"inconclusive [inhibitor, partial curve]"
5,CC(NC(=O)COC(=O)CCNC(=O)c1ccco1)C12CC3CC(CC(C3)C1)C2 (centres undefined),inactive
6,O=C(O)c1ccc(NC(=O)c2ccccc2NC(=O)c2ccccc2Cl)cc1,inactive
7,O=C(CSc1ccc2nnc(-c3ccc(F)cc3)n2n1)N1CCCc2ccccc21,"inconclusive [inhibitor, partial curve, poor fit]"
8,CCCCCN1C(C(=O)c2ccccc2)=C(NC(=O)c2ccc(OC)c(OC)c2)c2ccccc2S1(=O)=O,active: 10 µM
9,CCNC(=O)c1cccc(NC(=O)c2cc(C3CC3)nc3c2cnn3C(C)C)c1,active: 10 µM
10,COc1cc(C(=O)N2CCCC(c3cc(C(=O)NCc4ccccc4)no3)C2)cc(OC)c1C (centres undefined),"inconclusive [inhibitor, single point]"
11,Cc1nc(C(=O)NNC(=O)c2c(-c3c(Cl)cccc3Cl)noc2C)cs1,active: 5.62 µM
12,Cc1ccc(CCNC(=O)Cn2ncc3c([nH]c4ccccc43)c2=O)cc1,"inconclusive [inhibitor, full curve, poor fit]"
13,COc1ccc(N(CC(=O)NCCOc2ccccc2)S(=O)(=O)c2ccc(C)cc2)cc1,"inconclusive [inhibitor, full curve, poor fit]"
14,COc1ccccc1CNS(=O)(=O)c1c(C(=O)N2CCC(C)CC2)c(C)n(C)c1C,inactive
15,CCN(CC)S(=O)(=O)c1cccc(C(=O)N[C@H](C(=O)NNC(=O)c2ccccc2)C(C)C)c1,"inconclusive [inhibitor, single point]"
16,Cc1ccc2c(c1)-c1onc(C(=O)N3CCN(c4cc(C)ccc4C)CC3)c1CO2,inactive
17,COc1cc(C2c3cc4c(cc3OC(NNC(N)=O)C2C)OCO4)cc(OC)c1OC (centres undefined),"inconclusive [inhibitor, full curve, poor fit]"
18,O=C(NN1c2ccccc2CCc2ccccc21)c1ccccc1Br,"inconclusive [inhibitor, full curve, poor fit]"
19,COc1ccc(O)c(/C=N/Nc2nc(C)cc(-c3ccccc3)n2)c1,"inconclusive [inhibitor, single point]"
20,COc1ccccc1CCNC(=O)c1cc(C2CC2)nc2c1cnn2C(C)C,active: 10 µM
21,COc1ccc(/C=C/c2c([N+](=O)[O-])c(=O)n(C)c(=O)n2C)c(OC)c1OC,inactive
22,CC(=O)N(C(C)=O)C1=C(C#N)C2(CCCCC2)Cc2ccccc21,"inconclusive [inhibitor, partial curve, poor fit]"

row,SMILES,Potency
1,O=C(Cc1ccc(Cl)cc1)NC1CCCCCC1,"inconclusive [inhibitor, single point]"
2,Cc1ccnc(SCC(=O)Nc2sc3c(c2C#N)CCCC3)n1,inactive
3,Cc1ccn(CC(=O)NC2CC(C)(C)Cc3c2cnn3-c2ccc(F)cc2)n1 (centres undefined),"inconclusive [inhibitor, single point]"
4,COc1ccc(C(=O)c2ccc(Cl)c([N+](=O)[O-])c2)cc1,"inconclusive [inhibitor, full curve, poor fit]"
5,O=C(Cc1ccc2c(c1)CCCC2)Nc1ccccc1Cl,"inconclusive [inhibitor, partial curve, poor fit]"
6,Cc1cc(C)nc(/N=C(\N)Nc2ccc(C)c([N+](=O)[O-])c2)n1,"inconclusive [inhibitor, partial curve, poor fit]"
7,O=S(=O)(c1ccc2ccccc2c1)n1cnc2ccccc21,"inconclusive [inhibitor, single point]"
8,CN1CCCN(C(=O)c2cc3c(s2)CCCC3)CC1,"inconclusive [inhibitor, partial curve, poor fit]"
9,CCCCOC(=O)Nc1ccccc1C(=O)OC,"inconclusive [inhibitor, single point]"
10,CN=c1scc(-c2c[nH]c3ccccc23)n1C,"inconclusive [inhibitor, single point]"
11,FCCCOc1ccc(-c2nccc(-c3ccc(F)cc3)n2)cc1,"inconclusive [inhibitor, single point]"
12,O=C1CC(=Nc2ccccc2)NN1c1ccccc1,"inconclusive [inhibitor, partial curve, poor fit]"
13,Cc1cc(C)c(C)c(S(=O)(=O)NC2CCN(Cc3ccccc3)CC2)c1C,"inconclusive [inhibitor, partial curve, poor fit]"
14,Cc1cc(C)c2c(-n3cccc3)c(NC(=O)OCc3ccccc3)sc2n1,"inconclusive [inhibitor, full curve, poor fit]"
15,NC1=NC(c2ccccc2C(F)(F)F)N(c2ccc(F)c(Cl)c2)C(N)=N1 (centres undefined),"inconclusive [inhibitor, partial curve, poor fit]"
16,O=S(=O)(Nc1cccc(Cl)c1)c1ccc(-n2cccn2)cc1,"inconclusive [inhibitor, partial curve, poor fit]"
17,CSc1ccc(/C=N/N2CCN(Cc3ccccc3Cl)CC2)cc1,"inconclusive [inhibitor, partial curve]"
18,Cc1ccc(C(=O)NCCSc2c(C)[nH]c3ccccc23)cc1C,"inconclusive [inhibitor, single point]"
19,Cc1[nH]c2ccc(C(=O)OC(C)C(=O)NC3(C#N)CCCCC3)cc2c1C (centres undefined),"inconclusive [inhibitor, single point]"
20,Cc1c(C(=O)N2CCc3ccccc3C2)oc2ccc(S(=O)(=O)N3CCCCCC3)cc12,"inconclusive [inhibitor, single point]"
21,Cc1ccc(CSC2=Nc3ccccc3C3=NC(CCC(=O)NCCc4ccccc4)C(=O)N23)cc1 (centres undefined),inactive
22,Cc1cccc(-n2ccnc2SCC(=O)N2CCCc3ccccc32)c1C,active: 11.2 µM

row,SMILES,Potency
1,O=C(Nc1cccc(-c2nnc(-c3ccco3)o2)c1)C(c1ccccc1)c1ccccc1,active: 8.91 µM
2,Cc1cc2oc(C(=O)N3CCN(CCc4ccccn4)CC3)c(C)c2cc1C,"inconclusive [inhibitor, single point]"
3,CCOC(=O)C/C(C)=N/NC(=O)CNc1cccc(Cl)c1C,inactive
4,Cc1ccccc1Oc1ncnc2oc(-c3ccccc3)cc12,"inconclusive [inhibitor, single point]"
5,O=C(COc1ccccc1[N+](=O)[O-])Nc1cccc(Cl)c1N1CCOCC1,"inconclusive [inhibitor, partial curve, poor fit]"
6,Cc1onc(-c2ccccc2)c1C(=O)OCC(=O)N(C)c1ccccc1,"inconclusive [inhibitor, partial curve, poor fit]"
7,O=C(Nc1ccc2c(c1)OCO2)c1ccc(CO)cc1,"inconclusive [inhibitor, single point]"
8,O=C(CCC(=O)c1ccc(F)cc1)Nc1cc(Cl)cc(Cl)c1,"inconclusive [inhibitor, partial curve, poor fit]"
9,CC(C)S(=O)(=O)N1CCCC(c2cc(C(=O)Nc3ccc(F)c(Cl)c3)no2)C1 (centres undefined),"inconclusive [inhibitor, single point]"
10,O=C(N/N=C/c1ccc2cccc(OCc3ccccc3)c2n1)c1ccc(Cl)cc1,"inconclusive [inhibitor, single point]"
11,COc1ccc(CCNC(=O)c2cccc(S(=O)(=O)N3CCCCC3)c2)cc1,"inconclusive [inhibitor, partial curve]"
12,COc1ccc(C(=O)C[n+]2cccc3cc(OC)ccc32)cc1,"inconclusive [inhibitor, partial curve]"
13,OC[C@H]1O[C@@H](c2nc3ccc(-c4nc(-c5ccc(Br)cc5)no4)cc3[nH]2)C[C@@H]1O,"inconclusive [inhibitor, single point]"
14,COc1cccc(C(=O)Nc2ccccc2N2CCN(C(=O)c3ccccc3)CC2)c1,"inconclusive [inhibitor, partial curve, poor fit]"
15,CCOC(=O)c1[nH]c2ccc(OC)cc2c1NC(=O)c1cccc(OC)c1,"inconclusive [inhibitor, partial curve]"
16,CN(Cc1ccc(C(C)(C)C)cc1)C(=O)c1ccc2c(=O)n3c(nc2c1)CCC3,"inconclusive [inhibitor, partial curve]"
17,Cc1ccc(CS(=O)Cc2ccc(C(=O)NC3CCCC(C)C3C)o2)cc1 (centres undefined),"inconclusive [inhibitor, partial curve, poor fit]"
18,CC1(C)CC(=O)c2cc(C(=O)Nc3ccc(Cl)cc3)c(=O)[nH]c2C1,inactive
19,O=C(CSc1ccccc1)NNC(=O)c1ccncc1,inactive
20,Cc1ccc(N=Cc2cc(Br)cc(Cl)c2O)cc1,"inconclusive [inhibitor, single point]"
